# Assay results published in publication PMC4336329 (PLoS ONE, 2015).
# The campaign covered roughly 310,000 compounds. About 2,200 (0.71%) showed an effect of 50% or more. The effect is printed as a negative number. The list shows a part of the results.
# Target: human ether-à-go-go-related gene (hERG) potassium channel (human, UniProt Q12809)
# Assay: primary screen, population patch clamp on CHO cells stably expressing hERG
# Sequence of human ether-à-go-go-related gene (hERG) potassium channel (Q12809 whole entry, looked up): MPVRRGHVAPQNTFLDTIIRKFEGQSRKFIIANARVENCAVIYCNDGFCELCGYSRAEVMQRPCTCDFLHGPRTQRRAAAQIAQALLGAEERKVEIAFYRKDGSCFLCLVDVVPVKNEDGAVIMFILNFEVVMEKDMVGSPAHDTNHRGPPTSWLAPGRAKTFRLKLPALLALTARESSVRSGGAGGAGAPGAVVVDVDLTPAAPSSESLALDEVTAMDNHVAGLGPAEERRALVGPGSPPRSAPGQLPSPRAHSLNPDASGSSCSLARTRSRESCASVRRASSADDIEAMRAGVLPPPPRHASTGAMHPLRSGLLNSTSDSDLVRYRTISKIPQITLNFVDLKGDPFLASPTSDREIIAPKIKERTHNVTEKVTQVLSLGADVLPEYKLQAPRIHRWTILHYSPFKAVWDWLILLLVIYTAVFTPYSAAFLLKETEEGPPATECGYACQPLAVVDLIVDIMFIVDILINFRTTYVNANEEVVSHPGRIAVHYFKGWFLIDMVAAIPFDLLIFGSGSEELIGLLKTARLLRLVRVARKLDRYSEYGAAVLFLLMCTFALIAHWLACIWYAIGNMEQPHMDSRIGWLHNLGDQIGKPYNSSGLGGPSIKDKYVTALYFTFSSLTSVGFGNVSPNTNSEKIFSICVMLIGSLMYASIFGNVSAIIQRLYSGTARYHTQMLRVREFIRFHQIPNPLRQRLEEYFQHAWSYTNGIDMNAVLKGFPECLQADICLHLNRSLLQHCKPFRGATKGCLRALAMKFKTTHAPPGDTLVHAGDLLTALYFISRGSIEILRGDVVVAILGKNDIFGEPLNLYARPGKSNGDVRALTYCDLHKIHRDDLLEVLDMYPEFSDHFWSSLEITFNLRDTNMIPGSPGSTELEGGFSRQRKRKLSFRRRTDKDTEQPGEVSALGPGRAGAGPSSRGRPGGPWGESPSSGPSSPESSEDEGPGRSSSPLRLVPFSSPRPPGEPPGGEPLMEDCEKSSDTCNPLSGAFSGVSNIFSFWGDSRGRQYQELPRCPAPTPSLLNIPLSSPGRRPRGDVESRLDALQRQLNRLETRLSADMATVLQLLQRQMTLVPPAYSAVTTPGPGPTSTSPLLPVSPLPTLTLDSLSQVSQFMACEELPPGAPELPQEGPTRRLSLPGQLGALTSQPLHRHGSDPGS
row,SMILES,"hERG current change (%, negative = inhibition) at 1uM"
1,CC(C)C1CCC(C(=O)N[C@H](Cc2ccccc2)C(=O)O)CC1 (stereo partly shown),3.48%
2,COc1cccc(-c2c(C#N)c(N)nc3c2c(C)nn3-c2ccccc2)c1O,1.84%
3,Cc1cccc(C)c1OCC(=O)NNC(=O)Nc1ccc(Cl)cc1,0.0482%
4,CNC(=S)NNC(=O)c1cccc(N(C)C)c1,2.36%
5,COc1ccc(Cl)cc1NC(=O)C(C)Sc1nncn1C (stereo not shown),8.46%
6,CCOC(=O)n1c(=O)oc2cc(S(=O)(=O)N3CCOCC3)ccc21,-12.9%
7,Cc1ccc(S(=O)(=O)N2CCCC2C(=O)NCc2ccco2)cc1 (stereo not shown),8.74%
8,Cc1nc(NC(=O)/C=C/c2ccccc2)sc1C(=O)NCCO,12.2%
9,CC(NC(=O)c1ccc(CS(C)(=O)=O)cc1)C1CC2CCC1C2 (stereo not shown),4.05%
10,Cn1cc(CCC(=O)NCCCc2ccccc2)c2ccccc21,13.2%
11,O=C(NCCN1CCOCC1)/C(=C\c1ccccc1F)NC(=O)c1ccccc1,0.467%
12,COc1cccc(NC(=O)CSc2c3c(nc4ccccc24)CCCC3)c1,6.57%
13,CCC(=O)OCCNc1nc(-c2ccccc2)nc2ccccc12.Cl,-2.96%
14,COc1cccc(S(=O)(=O)Nc2cccc(C(=O)N3CCCC3)c2)c1,6.5%
15,CC(C)NC(=O)c1cc2n(n1)C(C(F)(F)F)CC(c1ccco1)N2 (stereo not shown),10.6%
16,CSc1ccc(S(=O)(=O)NCC(=O)OCC(=O)N(C)CC(=O)Nc2ccccc2Cl)cc1[N+](=O)[O-],11.1%
17,CCOC(=O)C1CCN(C(=O)N(C)C)CC1,16.5%
18,C=C(C)CNC(=S)NNC(=O)c1ccncc1,10.6%
19,Cc1cc(NC(=S)NC(=O)CC(C)C)ccc1Br,7.82%
20,CCCOc1c(Br)cc(C(=O)NCC)cc1OC,-7.47%

row,SMILES,"hERG current change (%, negative = inhibition) at 1uM"
1,OC(COc1ccccc1)CSc1ncn[nH]1 (stereo not shown),2.81%
2,COc1ccc(/C=C/C(=O)O)cc1S(=O)(=O)NCc1ccccc1,6.84%
3,CC(=O)Nc1ccc(C(=O)COC(=O)CN2C(=O)NC3(CCCCC3C)C2=O)cc1 (stereo not shown),12.7%
4,CSc1nnc(-c2cc[n+](C)cc2)n1CCO.[I-],6.95%
5,Cc1c(Cl)cccc1NC(=O)COc1ccc(S(=O)(=O)N2CCOCC2)cc1,3.86%
6,COC(=O)C1(O)CC(C(C)C)=NN1C(=O)c1ccc(Cl)cc1 (stereo not shown),7.83%
7,O=S(=O)(Nc1cccc(-c2cn3cccnc3n2)c1)c1ccccc1,6.1%
8,CC(=O)c1ccc(OCc2cccc(C(F)(F)F)c2)cc1O,13.5%
9,CC(C)N(C(=O)CSc1nc2c([nH]1)c(=O)n(C)c(=O)n2C)c1ccccc1,12.7%
10,NC(=O)c1cc([N+](=O)[O-])ccc1NCCN1C(=O)c2ccc(C(=O)O)cc2C1=O,13.4%
11,CC(C)OC(=O)CC1C(=O)NCCN1C(=S)NC(=O)c1ccccc1Cl (stereo not shown),9.35%
12,CC(C)C(=O)Nc1ccc2oc(=O)ccc2c1,13.6%
13,Cc1ccc(NC(=O)COC(=O)[C@H](C)NC(=O)c2ccccc2)cc1S(=O)(=O)N1CCOCC1,5.35%
14,O=C(NCc1n[nH]c(=S)n1-c1ccc(F)cc1)c1ccc(S(=O)(=O)N2CCCC2)cc1,15.7%
15,CCOc1ccc(-n2c(=O)c3sccc3n(CC(=O)NC3CCCCC3)c2=O)cc1,16.8%
16,COc1ccc(-c2csc(N3CCN(Cc4ccc5c(c4)OCO5)CC3)n2)cc1,5.65%
17,O=C(NNC(=S)Nc1cccc(Cl)c1)c1ccccc1OC(F)F,13.8%
18,COc1ccc(NC(=O)CCc2ccccc2)cc1S(=O)(=O)N1CCCCC1,12.1%
19,CC(C)(C)C(=O)NNC(=O)CCCOc1ccc(Cl)cc1Cl,15.6%
20,Cc1ccc2nc(C)cc(Cl)c2c1,12.9%

row,SMILES,"hERG current change (%, negative = inhibition) at 1uM"
1,CNC(=O)c1c[nH]n2c(=O)c(Cc3ccccc3F)c(C)nc12,10.7%
2,O=C(NCCCN1CCOCC1)c1cc(S(=O)(=O)N2CCOCC2)c(Cl)cc1Cl,11.2%
3,CC1=C(C(=O)OCc2ccccc2)C(/C=C/c2ccccc2)NC(=S)N1 (stereo not shown),4.09%
4,CCOC(=O)N1CCN(C(=O)c2ccccc2NC(=O)c2ccccc2Cl)CC1,10.4%
5,CCC(C)CCCCNC1=NCCS1 (stereo not shown),10.9%
6,COC(=O)c1ccc2ccccc2n1,9.64%
7,CCCc1cc(=O)[nH]c(SCC(=O)c2cc(C)n(CC(F)(F)F)c2C)n1,9.55%
8,O=C(Nc1ccncc1)c1cccc(S(=O)(=O)N2CCN(c3ccc(F)cc3)CC2)c1,-11.6%
9,Cc1cc2c(c(=O)o1)C(C(C)C)C(C#N)=C(N)O2 (stereo not shown),5.02%
10,O=C(COC(=O)c1ccccc1NC(=O)c1ccco1)Nc1ccc2c(c1)OC(F)(F)O2,16.7%
11,Cc1ccc(CNC(=O)c2ccc(NS(=O)(=O)c3cccs3)cc2)cc1,11.7%
12,CCc1nc2sc3ccccc3c(=O)c2c(=O)n1Cc1ccc(OC)cc1,11.4%
13,Cc1cc(CSc2ccccc2)ccc1NC(=O)COc1ccccc1,12.6%
14,COc1ccccc1Nc1nc(-c2sc(NC(=O)c3ccc([N+](=O)[O-])cc3)nc2C)cs1,6.62%
15,CC1CCN(CCCNC(=O)COc2cc(=O)n(C)c3ccccc23)CC1,7.37%
16,CCOc1ccc(-n2c(SCC(=O)c3c(N)n(C)c(=O)n(C)c3=O)nnc2-c2cccnc2)cc1,5.4%
17,COC(=O)c1ccc2c(c1)NC(=O)CS2,9.14%
18,CC(NC(=O)C(=O)NN=C1CCCCCCCCCCC1)c1ccccc1 (stereo not shown),12.7%
